# Experimental data as given in PMC12820563, “FoxP3 forms a head-to-head dimer in vivo and stabilizes its multimerization on adjacent microsatellites”.
# The list shows a part of the results.
# Molecular target: T1, MBP-FoxP1dN (Mus musculus, UniProt P58462 326-579)
# T1 sequence: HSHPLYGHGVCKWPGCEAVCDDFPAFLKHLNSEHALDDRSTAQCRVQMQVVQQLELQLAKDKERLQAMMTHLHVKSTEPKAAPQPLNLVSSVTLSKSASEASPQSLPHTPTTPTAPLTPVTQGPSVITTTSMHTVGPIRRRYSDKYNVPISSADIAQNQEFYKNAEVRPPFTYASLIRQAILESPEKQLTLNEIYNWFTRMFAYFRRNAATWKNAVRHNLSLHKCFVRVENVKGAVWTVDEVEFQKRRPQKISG
# Assay: PD-seq (MBP pull-down with sequencing); 20 mM Tris-HCl pH 7.5, 100 mM NaCl, 1.5 mM MgCl2, 0.4 uM protein, 0.1 uM dsDNA library, 30 min, room temperature, amylose pull-down; high values mean tight binding
# Details: protein: recombinant; tags: His6-MBP; chain copies: 2; dsDNA, one strand shown
# Summary of the method: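 Binding is reads-per-million enrichment of pull-down over input, with replicates pooled. It comes from 30 min room-temperature incubation in Tris pH 7.5 buffer with NaCl and MgCl2 of 0.4 µM His6-MBP-tagged, N-terminally truncated mouse FoxP3 or FoxP1 fragment from E. coli with 0.1 µM Klenow-filled degenerate double-stranded DNA library, followed by amylose resin capture, three washes and Illumina sequencing of the released DNA.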
row,Sequence,binding signal
1,GATGATTGTTCTCCCAGCTGATGAATTTGCATCTTCGAGTAAACAAATTTTCCTAATCTTTCTGTTCAAGCGCCATCTAC,1.89 RPM ratio (pull-down/input)
2,GATGATTGTTCTCCCAGCTGATGAATTGACTCCTTCGAGTAAACAAATTTTCCTAATCTTTCTGTTCAAGCGCCATCTAC,0.989 RPM ratio (pull-down/input)
3,GATGATTGTTCTCCCAGCTGATGAATTTTAAAGGTCGAGTAAACAAATTTTCCTAATCTTTCTGTTCAAGCGCCATCTAC,0.723 RPM ratio (pull-down/input)
4,GATGATTGTTCTCCCAGCTGATGAATTTATTTCGTCGAGTAAACAAATTTTCCTAATCTTTCTGTTCAAGCGCCATCTAC,1.27 RPM ratio (pull-down/input)
5,GATGATTGTTCTCCCAGCTGATGAATTTTAATTGTCGAGTAAACAAATTTTCCTAATCTTTCTGTTCAAGCGCCATCTAC,1.47 RPM ratio (pull-down/input)
6,GATGATTGTTCTCCCAGCTGATGAATTTGGAATGTCGAGTAAACAAATTTTCCTAATCTTTCTGTTCAAGCGCCATCTAC,0.903 RPM ratio (pull-down/input)
7,GATGATTGTTCTCCCAGCTGATGAATTGAGCCCATCGAGTAAACAAATTTTCCTAATCTTTCTGTTCAAGCGCCATCTAC,0.889 RPM ratio (pull-down/input)
8,GATGATTGTTCTCCCAGCTGATGAATTAAGATACTCGAGTAAACAAATTTTCCTAATCTTTCTGTTCAAGCGCCATCTAC,1 RPM ratio (pull-down/input)
9,GATGATTGTTCTCCCAGCTGATGAATTTGACAATTCGAGTAAACAAATTTTCCTAATCTTTCTGTTCAAGCGCCATCTAC,1.02 RPM ratio (pull-down/input)
10,GATGATTGTTCTCCCAGCTGATGAATTCATTTGTTCGAGTAAACAAATTTTCCTAATCTTTCTGTTCAAGCGCCATCTAC,0.984 RPM ratio (pull-down/input)
11,GATGATTGTTCTCCCAGCTGATGAATTTTCACGCTCGAGTAAACAAATTTTCCTAATCTTTCTGTTCAAGCGCCATCTAC,0.952 RPM ratio (pull-down/input)
12,GATGATTGTTCTCCCAGCTGATGAATTGACCTACTCGAGTAAACAAATTTTCCTAATCTTTCTGTTCAAGCGCCATCTAC,0.881 RPM ratio (pull-down/input)
13,GATGATTGTTCTCCCAGCTGATGAATTCCCAGGATCGAGTAAACAAATTTTCCTAATCTTTCTGTTCAAGCGCCATCTAC,0.749 RPM ratio (pull-down/input)
14,GATGATTGTTCTCCCAGCTGATGAATTCTAACAATCGAGTAAACAAATTTTCCTAATCTTTCTGTTCAAGCGCCATCTAC,1.52 RPM ratio (pull-down/input)
15,GATGATTGTTCTCCCAGCTGATGAATTGCCTAAATCGAGTAAACAAATTTTCCTAATCTTTCTGTTCAAGCGCCATCTAC,1.21 RPM ratio (pull-down/input)
16,GATGATTGTTCTCCCAGCTGATGAATTGTCAATCTCGAGTAAACAAATTTTCCTAATCTTTCTGTTCAAGCGCCATCTAC,1.08 RPM ratio (pull-down/input)
17,GATGATTGTTCTCCCAGCTGATGAATTATCCCTTTCGAGTAAACAAATTTTCCTAATCTTTCTGTTCAAGCGCCATCTAC,0.962 RPM ratio (pull-down/input)
18,GATGATTGTTCTCCCAGCTGATGAATTCATTACGTCGAGTAAACAAATTTTCCTAATCTTTCTGTTCAAGCGCCATCTAC,1.01 RPM ratio (pull-down/input)
